Laboratory results published in PubChem BioAssay AID760 (NMMLSC, 2007).
Screen size: about 190,000 compounds; about 360 (0.19%) were called active. Inconclusive means that the source gave no clear call. Such entries were picked first, then a sample of the others.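 How the source made its calls: active means GTP binding activity at least 20 points away from 100%, either lowered or raised; inconclusive means signal likely due to the compound's own green fluorescence; inactive means the rest.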

Target: Ras-related protein Rab-2A (Canis lupus familiaris) (UniProt P61105)
Assay: Rab2 wt fluorescent GTP binding changes, either direction – biochemical, dog, bead-based flow cytometry, multiplex, primary screen (AID 760);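 further: 0% = beads with excess unlabeled GTP and 100% = no-compound control corrected for plate trend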
Details: GST-Rab2 wt beads, Bodipy-GTP binding, at 10 µM

Structure (SMILES)	GTP binding activity
Cc1cc(C)nc(NC(=O)CSc2nccc(C)n2)n1	inconclusive: 98%
CC(C)(C)c1ccc(C(=O)NC(=S)Nn2cnnc2)cc1	inconclusive: 96%
CCOC(=O)C1(CCCc2ccccc2)CCN(Cc2cn(CC)nc2C)CC1	inactive: 100%
COc1ccc(/C=C/C(=O)NC(=S)Nc2ccc(S(=O)(=O)Nc3nccnc3OC)cc2)cc1	inconclusive: 82%
O=C(O)CCN1C(=O)/C(=C/c2ccc(-c3nc4ccccc4s3)o2)SC1=S	inconclusive: 70%
O=C(O)CSc1nnc(COc2cccc3ccccc23)n1Cc1ccccc1	inconclusive: 86%
COc1ccc(C(=O)c2c(O)cc(-c3ccc(OC)cc3)oc2=O)cc1	inactive: 118%
CCCCNC(=O)CSc1nc2ccsc2c(=O)n1CCCC(=O)NCCc1ccc(S(N)(=O)=O)cc1	inactive: 92%
O=C(CSc1nnc(-c2ccco2)n1Cc1ccco1)NCc1cccs1	inconclusive: 101%
CCCC(=O)NCCc1nc2cc([N+](=O)[O-])ccc2n1C	inactive: 98%
CCc1ccc(-c2c(C)sc(NC(C)=O)c2C(N)=O)cc1	inconclusive: 105%
CC(C)=CCCC(C)CN1CCC(N2CCC(C(=O)NC(C)C)CC2)CC1 (stereo not drawn)	inactive: 97%
CC(=O)Nc1ccc(S(=O)(=O)N2CCN(C(C)CCc3ccccc3)CC2)cc1 (stereo not drawn)	inconclusive: 104%
C=CCN(C(=O)c1cccc(N2C(=O)C3CC=CC(C)C3C2=O)c1)c1ccccc1 (stereo not drawn)	inactive: 98%
Cc1cc(C)nc(Nc2nc(C)c3cc4c(cc3n2)OCO4)n1	inconclusive: 111%
CC1(C)N=C(N)NC(Nc2ccccc2Cl)=N1	inactive: 97%
O=C(NC(=S)N1CCN(c2ccc(F)cc2)CC1)C12CC3CC(CC(C3)C1)C2	inconclusive: 101%
CCOC(=O)c1c(C)n(CC(COC(C)=O)OC(C)=O)c2ccc(OC(C)=O)cc12 (stereo not drawn)	inconclusive: 100%
CCNC(=O)NC(=O)C(C)OC(=O)Cc1coc2cc3c(cc12)CCC3 (stereo not drawn)	inconclusive: 93%
CCCOc1ccc(C(CC(=O)O)NC(=O)c2sc3ccccc3c2Cl)cc1 (stereo not drawn)	active: 75%
O=C(c1cccc([N+](=O)[O-])c1)N1CCN(c2ccccn2)CC1	inconclusive: 114%
Cc1onc(COc2ccccc2O)c1Br	inconclusive: 107%
Cc1cccc(NC(=S)N(CCN(C)C)Cc2cccs2)c1	inactive: 99%
Cc1ccc(/C([O-])=C(/C(=S)Nc2ccc(SC(F)F)cc2)[n+]2ccccc2)cc1[N+](=O)[O-]	inconclusive: 85%

Structure (SMILES)	GTP binding activity
COc1cccc(-c2nn(C)c3sc(C(=O)NCc4ccco4)cc23)c1	inconclusive: 88%
Cc1onc(-c2c(F)cccc2Cl)c1C(=O)N1CCOC12CCCCC2	inactive: 99%
CC(=O)N(Cc1cc(=O)[nH]c2ccccc12)c1ccc(C)cc1	inconclusive: 103%
COc1ccc(/C=N/NC(=O)c2ccncc2)cc1CN1CCCc2ccccc21	inactive: 95%
COc1ccc(C(C(=O)NC2CCCC2)N(C(=O)c2snc(-c3ccc(F)cc3)c2N)c2ccc(F)cc2)cc1 (stereo not drawn)	inconclusive: 105%
O=C(Cn1nnc(-c2ccccc2)n1)N/N=C/c1ccco1	inactive: 98%
CCC(C(=O)N1CCc2cc(OC)c(OC)cc2C1)c1ccccc1 (stereo not drawn)	inconclusive: 104%
Cc1nc2ncccn2c1-c1csc(Nc2ccc(O)cc2)n1	inconclusive: 41%
O=C(NNc1ccc([N+](=O)[O-])cc1)C1CC2CCCC(C1)C2=O (stereo not drawn)	inconclusive: 92%
CCN(CC)CC1(O)CCN(C(=O)c2ccc(Cl)c(Cl)c2)CC1	inconclusive: 103%
COc1cccc(Nc2ncc(C(=O)O)c3ccccc23)c1	inactive: 102%
COc1ccc(NC(=O)CC2CC3CCC2C3)cn1 (stereo not drawn)	inconclusive: 92%
COc1cc(C)ccc1S(=O)(=O)n1nc(C)cc1C	inactive: 96%
CCn1c(=O)n(CC(=O)Nc2ccc(F)cc2)c(=O)c2ccccc21	inactive: 101%
CC(=O)Nc1ccc(NC(=O)CCn2nnc3ccccc32)cc1	active: 35%
O=C(Nc1ccccc1Cl)c1ccccc1Cc1ccccc1	inactive: 102%
Cc1ccc([N+](=O)[O-])cc1-c1ccc(/C=C(\C#N)c2[nH]nc(N)c2C#N)o1	inactive: 82%
COc1ccc(C2=NNC(=O)CC2)cc1	inactive: 101%
COc1ccc(-n2c(=O)[nH]c3c(C(N)=O)nc(C4CCCCC4)nc32)cc1	inactive: 99%
CC(=O)c1cc(OC(=O)N2CCOCC2)ccc1OC(=O)N1CCOCC1	inconclusive: 92%
c1ccc2c(c1)[nH]c1c(N3CCOCC3)ncnc12	inconclusive: 92%
CCOC(=O)N1CCN(S(=O)(=O)c2cc([N+](=O)[O-])ccc2C)CC1	inconclusive: 97%
O=c1[nH]cc(S(=O)(=O)c2ccccc2)[nH]1	inconclusive: 96%
Cc1ccc(OCc2ccc(Br)cc2)c([N+](=O)[O-])n1	inactive: 97%

Structure (SMILES)	GTP binding activity
O=C(Cc1csc(N2CCOCC2)n1)N/N=C/c1cccc(O)c1	inconclusive: 105%
CCOC(=O)C1(C)NC(c2ccccc2F)C2C(=O)N(CC)C(=O)C21 (stereo not drawn)	inactive: 99%
COc1ccc(NS(=O)(=O)c2ccc(N/N=C/c3ccc(N4CCOCC4)cc3)c([N+](=O)[O-])c2)cc1	inconclusive: 93%
O=C(O)C1C(C(=O)Nc2ccc(Cl)cc2)C2C=CC1C21CC1 (stereo not drawn)	inconclusive: 211%
Cc1ccc(C)c(NC(=S)NNC(=O)c2cc3c(s2)CCC(C)C3)c1 (stereo not drawn)	inconclusive: 153%
COc1ccc(CC(=O)NCCC(C)C)cc1S(=O)(=O)N1CCOCC1	inactive: 99%
CC(CC(=O)NC1CCSC1=O)c1ccccc1 (stereo not drawn)	inconclusive: 103%
CC1=C(C(N)=O)C(c2cccnc2)n2nc(SCc3ccccc3Cl)nc2N1 (stereo not drawn)	inconclusive: 99%
CCOC(=O)N1CCN(c2c(N3CCc4ccccc43)c(=O)c2=O)CC1	inconclusive: 103%
COc1cc(NC(=O)c2ccc3c(c2)OCCO3)ccc1NC(=O)c1ccco1	inconclusive: 96%
CCCOC1CCCN(Cc2cn(C)nc2-c2ccccc2F)C1 (stereo not drawn)	inactive: 96%
COc1ccc(/C=C/c2c([N+](=O)[O-])c(=O)n(C)c(=O)n2C)c(OC)c1	inconclusive: 92%
O=c1c2ccccc2nc2c3ccccc3c(Cl)nn12	active: 78%
O=C(NCc1cccnc1)c1cccn2c(=O)c3sccc3nc12	inactive: 82%
O=C1CN=C(Nc2ccccc2Cl)N1Cc1ccc2c(c1)OCO2	inconclusive: 100%
CC#CCC(CC#CC)c1nc2ccccc2c(=O)n1N	inconclusive: 103%
O=C(O)CC1=C(Nc2ccccc2)C(=O)N(c2ccccc2)C1c1ccc(Br)cc1 (stereo not drawn)	inactive: 94%
CCN1CCN(c2ccc(NC(=O)c3cccc(F)c3)cc2Cl)CC1	inactive: 95%
Cc1cc(C)cc(NC(=O)COC(=O)CN=C2NS(=O)(=O)c3ccccc32)c1	inactive: 98%
CC(C)c1nc2oc3c(=O)[nH]cnc3c2c2c1CCC2	active: 73%
N#C/C(=C\c1ccc(N2CCCCC2)o1)C(=O)Nc1cccc(Br)c1	inconclusive: 112%
Fc1ccccc1-c1csc(=Nc2cccnc2)n1CCCn1ccnc1	inactive: 101%
NNC(=O)[C@H]1C[C@@H]1c1ccccc1	inconclusive: 102%
Cc1ccc(NC(=O)/C(C#N)=C/c2cc(C)n(-c3ccc(N4CCOCC4)c([N+](=O)[O-])c3)c2C)c(C)c1	inconclusive: 116%

Structure (SMILES)	GTP binding activity
Cc1sc2nc(SCC(=O)N3CCCCC3)[nH]c(=O)c2c1C	inconclusive: 99%
Oc1c(CN2CCOCC2)ccc2ccccc12	inconclusive: 118%
O=C(Nc1cnn(C23CC4CC(CC(C4)C2)C3)c1)c1cnn2cccnc12	active: 121% [activator]
CC(C)n1c2ccccc2c2cc([N+](=O)[O-])ccc21	inconclusive: 101%
CCOC(=O)n1c(=O)n(C)c2ccc(Cl)cc21	inconclusive: 97%
C(=N\Nc1nn2cnnc2c2ccccc12)/c1ccco1	active: 72%
O=C(CCCN1C(=O)/C(=C/c2ccccc2Cl)SC1=S)NNC(=O)c1ccccc1Cl	inactive: 100%
N#Cc1c(-c2ccccc2)nc2n1CCS2	inactive: 96%
COc1ccc(-c2nc3cc(NC(=O)Cc4ccc(OC)c(OC)c4)ccc3o2)cc1	inconclusive: 97%
COc1ccc(CCNS(=O)(=O)c2ccc3c(c2)CCN3C(=O)C2CC2)cc1OC	inconclusive: 107%
Cn1c2c(c(=O)n(C)c1=O)CN(CCc1ccccc1)CN2	inconclusive: 102%
Cc1ccccc1C1(CCN2CCCCC2)CCOC(C)(C)C1 (stereo not drawn)	inconclusive: 99%
O=S(=O)(Cc1ccccc1)NCC1CCCO1 (stereo not drawn)	inactive: 103%
O=C(Nc1nnc(CSCc2ccccc2F)s1)c1cccc([N+](=O)[O-])c1	inconclusive: 90%
NC(=O)C1(N2CCCCC2)CCN(C2CC(=O)N(CCc3ccccc3)C2=O)CC1 (stereo not drawn)	inconclusive: 91%
COc1cc2[nH]c(=S)nc(NCc3cccs3)c2cc1OC	active: 66%
CC(=O)Nc1cccc(NS(=O)(=O)c2cccc3nsnc23)c1	inconclusive: 104%
Nc1ccc(C(=O)Nc2ccc3nc(-c4ccncc4)[nH]c3c2)cc1	inconclusive: 84%
Cc1c(C)n(C)c2ccc(C(=O)Nc3cccc4ccccc34)cc12	inactive: 95%
Cc1nn(CC(=O)c2ccc(Cl)cc2Cl)c(C)[n+]1N	inconclusive: 103%
CCOC(=O)c1c(NC(=O)/C=C/c2ccc3c(c2)OCO3)sc(C)c1CC	inactive: 85%
